Assay results: the RNAGym collection of RNA variant scans (doi:10.7554/elife.90254)
Read counts are not given, so values of variants with three or more changes are uncertain.

B1: OR4K15 (parent)
chain: GUUAACGGUCAUAGGCCAUGGAAACUAGGAGCACCAUUUCGCUGCCAGUGAAGAAAUGAACAAAGAAAAUCUGGGCCAGGCAGGCAUCAAAAGAAAUAGUCUUGCGCUCAACCAGAAAGUCUGUAAUCAUUUUAAGGGUA

Variants of: B1
Assay: self-cleavage, relative activity (ratio to wild type); higher = more cleavage; in vitro, sequencing; the parent is a self-cleaving ribozyme
With GUUAACGAUCAUAGGCCAUGGUAACUAGGAGCACCAUUUCGCUGCCAGUGAAGAAAUGAGCAAAGAAAAUCUGGGCCAGGCAGGCAUCAAAAGAAAUAGUCUUGCGCUCAACCAGAAAGUCUGUAAUCAUUUUAAGGGUA the self-cleavage was 0.82. GUUAACGAUCAUAGGCCAUGGAAACUAGGGGCACCAUUUCGCUGCCAGUGAAGAAAUGAACAAAGAAAAUCUGGGCCAGGCAGGCAUCAAAAGAAAUAGCCUUGCGCUCAACCAGAAAGUCUGUAAUCAUUUUAAGGGUA gave a self-cleavage of 1.97. GUUAACUGUCAUAGGCCAUGGACACUAGGAGCACCAUUUCGCUGCCAGUGAAGAAAUGAACAAAGAAAAUCUGGGCCGGGCAGGUAUCAAAAGAAAUAGUCUUGCGCUCAACCAGAAAGUCUGUAAUCAUUUUAAGGGUA showed a self-cleavage of 0.38. In the case of GUUAACUGUCAUAGGCCAUGGAAACUAGGUGCACCACUUCGCUGCCAGUGAAGAAAUGAACAAAGAAAAUCUGGGCCAGGCGGGCAUCAAAAGAAAUAGUCUUGCGCUCAACCAGAAAGUCUGUAAUCAUUUUAAGGGUA, the self-cleavage is reported as 0.58. Work on GUUAACGAUCGUAGGCCAUGGAAACUAGGAGCACCAUUUCGCUACCAGUGAAGAAAUGAACAAAGAAGAUCCGGGCCAGGCAGGCAUCAAAAGAAAUAGUCUUGCGCCCAACCAGAAAGUCCGUAAUCAUUUUAAGGGUA yielded a self-cleavage of 0.01. Variant GUUAACGAUCAUAGACCAUGGAAACUAGGAGCACCAUUUCGCUGCCAGUGAAGAAAUGAACAAAGAAAAUCUGGGCCAGGCAGGCGUCAAAAGAAAUAGUCUUGCGCUCAACCAGAAAGCCUGUAAUCAUUUUAAGGGUA has a self-cleavage of 0.64. Variant GUUAACGAACAUAGGCCAUGGAAACUAGGAGCACCAUUUCGCUGCCAGUGAAGAAAUGAACAAAGAGUAUCUGGGCCAGGCAGGCAUCAAAAGAAAUAGUCUUGUGCUCAACCAGAAAGCCUGUAAUCAUUUUAAGGGUA has a self-cleavage of 0.04. Variant GUUAACUGUCAUAGGCCAUGGAAACUAGGAGCACCAUUUCGCUGCCAGUGAAGAAAUGAACAAAGAAAAUCUGGGCCAGGCAGGCAUCAAAAGAAGUAGUCUUGCGCUCAACCAGAAAGUCUGCAAUCAUUUUAAGGGUA has a self-cleavage of 1.54. Work on GUUAACUGUCAUAGGCCAUGGAAACUAGGAGCACCAUUUCGCUGCCAGUGAAGAAAUGAACAAAGAAAAUCUGGGCCAGGCAGGCAUCAGAGGAAAUAGUCUUGCGCUCAACCAGAAAGUCUGCAAUCAUUUUAAGGGUA yielded a self-cleavage of 0.76. With GUUAACGAUCAUAGGCCACGGAAACUAGGAGCACCAUUUCGCUGCCAGUGAAGAAAUGAACAAAGAAAAUCUGGGCCAGGCAGGCAUCAAAAGAAAUAGUCUUGCGCUCAACCAGAAAGUCUGUAGUCAUUUUAAGGGUA the self-cleavage was 1.19. GUUAACGAUCAUAGGCCAUGGAAACCAGGAGCACCAUUUCGCUGCCAGUGAAGAAAUGAACAAGGAAAAUCUGGGCCAGGCAGGCAUCAAAAGAAAUAGUCUUGCGCUCAACCAGAAAGUCUGUAAUCAUUUUAAGGGUA gave a self-cleavage of 1.1. With GUUAACGAUCAUAGGCCAUGGAAACUAGGAGCACCAUUUCGCUGCCAGUGAAGAAAUGGACAAAGAAAAUCUGGGCCGGGCAGGCAUCAAAAGAAAUAGUCUUGCGCUCAACCAGAAAGUCUGUAAUCAUUUUAAGGGUA the self-cleavage was 0.28. For GUUAACGAUCAUAGGCCAUGGAAACUAGGAGCACCAUUUCGCUGCCAGUGAAGAAGUGAACAAGGAAAAUCUGGGCCAGGCAGGCUCCAAAAGAAAUAGUCUUGCGCUCAACCAGGAAGUCUGUAAACAUUUUAAGGGUA, the self-cleavage was 0.46. GUUAACCGUCAUAGGCCAUGGAAACUAGGAGCACCAUUUCGCUGCCAGUGAGGAAAUGAACAAAGAAAAUCUGGGCCAGGCAGGCAUCGAAAGAAAUAGUCUUGCGCUCAACCAGAAAGUCUGUAAUCAUUUUAAGGGUA gave a self-cleavage of 1.78. GUUAACUGUCAUAGGCCAUGGAAACUAGGAGCACCAUUUCGCUGCCAGUGAAGAAAUGAACAAAGAAAAUCUGGGCCAGGCAGGCACCAAAAGAAGUAGUCUUGCGCUCAACCAGGAAGUCUGUAUUCAUUUUAAGGGUA gave a self-cleavage of 0.41. Work on GUUAACUGUCAUAGGCCAUGGAAACUAGGAGCACCAUUUCGCUGCCAGUGAAGAAAUGAACAAAGAAAAUCUGGGCCAGGCAGGCAUCAAAAGAAGUAGUCUUGCGCUCAACCAGAAAGUUUGUAACCAUUUUAAGGGUA yielded a self-cleavage of 0.9. With GUUAACGAUCAUAGGCCAUGGAAACUAGGAGCACCAUUUCGCUGCCAGUGAAGGAAGGAACGAAGAAAAUCUGGGCCAGGCAGGCAUCAAAAGAAGUAGUCCUGCGCUCAACCAGGAAGUCUGUAAUCAUUUUAAGGGUA the self-cleavage was 1.2. Variant GUUAACGAUCAUAGGCCAUGGAAACUAGGAGCACCAUUUCGCUGCCAGUGAAGAAAUGAACAAAGAAAAUCUGGGCCAGGCAGGCAUCAAAAGAAAUAGUCUUGCGCUCAACCGGAAAGUCUGUAACCAUUUUAAGGGUA has a self-cleavage of 0.19. GUUAACGAUCAUAGGCCAUGGAAACUAGGAGCACCUUUUCGCUGCCAGUGAAGAAAUGAACAAAGAAAAACUGGGCCAGGCAGGCAUCAAAAGAAAUAGUCUUGCGCUCAACCAGAAAGUCUGUAAUCAUUUUAAGGGUA gave a self-cleavage of 2.09. Variant GUUAACGAUCAUAGGCCAUGGAGACUAGGUGCACCAUUUCGCUGCCAGUGAAGAAAUGAACAAAGAAAAUCUGGGCCAGGCAGGCAUCAGAAGAAAUAGUCUUGCGCUCAACCAGGAAGUCUGUAAUCAUUUUAAGGGUA has a self-cleavage of 0.15. GUUAACGAUCAUAGGCCAUGGAAACUAGGAGCACCAUUUCGCCGCCAGUGAAGAAACGAACAAAGAAAAUCUGGGCCAGGCAGGCAUCAAAAGAAAUAGUCUUGCGCUCAACCAGAAGGUCUGUAAUCAUUUUAAGGGUA showed a self-cleavage of 0.73. In the case of GUUAACUGUCAUAGGCCAUGGGGACUAGGAGCACCAUUUCGCUGCCAGUGAAGAAAUGAACAAAGAAAAUCUGGGCCAGGCAGGCAUCAAAAGAAAUAGUCUUGCGCUCAACCAGAAAGUCUGUAGUCAUUUUAAGGGUA, the self-cleavage is reported as 0.78. In the case of GUUAACGAUCAUAGGCCAUGGAAACUAGGAGCACCAUUUCGCUGCCAGUGAAGAAAUGGACAAAGAAAAUCUGGGCCAUGCAGGCAUCAAAAGAAAUAGUCUUGCGCUCAACCAGAAAGUCUGUAAUCAUUUUAAGGGUA, the self-cleavage is reported as 0.15. Work on GUUAACUGUCGUAGGCCACGGAAACUAGGAGCACCAUUUCGCUGCCAGUGAAGAAAUGAACAGAGAAAAUCUGGGCCAGGCAGGCAUCAAAAGAAAUAGUCCUGCGCUCAGCCAGAAAGUCUGUAAUCAUUUUAAGGGUA yielded a self-cleavage of 0.02. GUUAACUGUCAAAGGCCAUGGAAACUAGGAGCACCAUUUCGCUGCCCGUGAAGAAAUGAACAAAGAAAAUCUGGGCCAGGCAGGCAUCAAAAGAAAUAGUCUUGCGCUUAACCAGAAAGUCUGUAAUCAUUAUAAGGGUA gave a self-cleavage of 0.37. GUUAACGAUCAUAGGCCAUGGAAACUAGGAGCACCAUUUCGCUGCCAGUGAAGAAAUGAACAAAGAAAAUCUGGGCCGGGCAGGCAUCAAGAGAAACAGUCUUGCGCUCAACCAGAAAGUCUGUAAUCAUUUUAAGGGUA gave a self-cleavage of 0.12. GUUAACGAUCAUAGGCCAUGGAAACAAGGAGCACCAUUUCGCCGCCAGUGAAGAAAUGAACAAAGAAAAUCUGGGCCAGGCAGGCAUCAAAAGAAGUGGUCUUGCGCUCAACCAGAAAGUCUGUAAUCAUUUUAAGGGUA gave a self-cleavage of 0.35. Variant GUUAACGAUCAUAGGCCAUGGAAACUAGGAGCACCAUUUCGCUGCCAUUGAAGAAAUGAACAAAGGAAAUCUGGGCCAGGCAGGCAUCAAAAGAAAUAGUCUUGCGCUCAACCAGAAAGUCUGUAAUCAUUUUAAGGGUA has a self-cleavage of 0.65. GUUAACUGUCAUAGGCCAUGGAAACUAGGAGCACCAUUUCGCUGCCAGUGAAGAAAUGAACAAAGGAAAUCUGUGCCAGGCAGGCAUCUGAAGAAAUAGUCUUGCGCUCAACCAGAAAGUCUGUAAUCAUUUUAAGGGUA gave a self-cleavage of 0.11. In the case of GUUAACUGUCAUAGGCCAUGGAAACUAGGAGCACCAUUCCGCUGCCAGUGAAGAAAUGAACAAAGAAAAUCUGGGCCAGGCAGGCAUCAAAAGAAAUAGUCUUGCGCACAACCAGAAAGUCUGUAAUCAUUUUAAGGGUA, the self-cleavage is reported as 0.08. For GUUAACUGUCACAGGCCAUGGAAACUAGGAGCACCAUUUCGCUGCCGGUGAAGAAAUGAGCAAAGAAAAUCUGGGCCAGGCAGGCAUCAAAAGAAAUAGUCUUGCGCUCAACCAGAAAGUCUGUAAUCAUUUUAAGGGUA, the self-cleavage was 0.41. GUUAACUGUCAUAGGCCAUGGAAGCUAGGAGCACCAUUUCGCUGCCAGUGAAGAAAUGAACAAAGAAAAUCUGGGCCAGGCAGGCAUCAAAAGAAAUAGUCUUGCGCUCGACCAGAAAGUCUGUAAUCAUUUUAAGGGUA showed a self-cleavage of 0.42. GUUAACUGUCAUAGGCCAUGGAAACUAGGAGCACCAUUUCGCUGCCAGUGAAGAAAUGAACAAAGAAAAUCUGGGCCAGGCAGGCAUCAAAAGAUAUAGUCUUGCGCCCAACCAGAAAGUCUGUAAUCAUUUUGGGGGUA showed a self-cleavage of 0. GUUAACUGUCAUGGGCCAUGGAAACUAGGAGCACCAUUUCGCUGCCAGUGAAGAAAUGAACAAAGAAAAUCUGGGCCAGGCAGGCAUCAAAAGAAAUAGUCUUGCGCUCAACCAGGAAGUCUGUAAUCAUUUUAAGGGUA gave a self-cleavage of 1.43. With GUUAACGAUCGUAGGCCAUGGUAACUAGGAGCACCAUUUCGCUGCCAGUGAAGAAAUGAACAAAGAAAAUCUGGGCCAGGCAGGCAUCAAAAGAAAUAGUCUUGCGCUCAACCAGAAAGUCUGUAAUCAUUUUAAGGGUA the self-cleavage was 1.11. With GUUAACGAUCAUAGGCCAUGGAGACUAGGAGCACCAUUCCGCUGCCAGUGAAGAAAUGAACAAAGAAAAUCUGGGCCAGGCAGGCAUCAGAAGAAAUAGUCUUGCGCUCAACCAGAAAGCCUGUAAUCAUUUUAAGGGUA the self-cleavage was 0.18. For GUUAACUGUCAUAGGCCAUGGAAACCAGGAGCACCAUUACGCUGCCAGUGAAGAAAUGAACAAAGAAAACCUGGGCCAGGCAGGCAUCAAAAGAAAUAGUCUUGCGCUCAACCAGAAAGUCUGUAAUCAUUUUAAGGGUA, the self-cleavage was 1.08. For GUUAACUGUCAUAGGCCAUGGAAACUAGGAGCACCAUUUCGCUGCCAGUGAAGAAAUGAGCAAAGAAAAUCUGGGCCAGGCAGGCAUCAAAAGAGAUAGUCUUGCGCUCAACCAGAAAGUCUGUAAUCAUUUUAGGGGUA, the self-cleavage was 0.48. GUUAACUGUCAUAGGCCAUGGAAACUAGGAGCACCAUUUCGCUGCCAGUGAGGAAAUGAGCAAAGAAAACCUGGGCCAGGCAGGCAUCAAAAGAAACAGUCUUGCGCUCAACCAGAAAGUCUGUAGUCAUUUUAAGGGUA showed a self-cleavage of 0.2. In the case of GUUAACUGUCAUAGGCCAUGGAAACUAGGAGCACCAUUUCGCUGCCAGUGAUGAAAUGAACAAAGAAAAUCUGGGCCAGGCAGGCAUCAAAAGAAGUAGUCUUGCGCUCAACCAGAAAGUCUGUAAUCAUUUUAAGGGUA, the self-cleavage is reported as 1.31. Work on GUUAACGCUCAUAGGCCAUGGAAACUAGGAGCACCAUUUCGCUGCCAGUGAAGAAAUGAACAAAGAGAAUCCGGGCCAGGCAGGCAUCAAAAGAAAUAGUCUUGCGCUCAACCAGAAAGUCUGUGAUCAUUUUAAGGGUA yielded a self-cleavage of 0.31.
